Reference: the supplement of paper PMC9446081
In all, about 39,000 compounds went through this assay and about 220 (0.56%) showed activity. This is one part of the list.

tested on: Escherichia coli K-12 BW25113; assay: relative growth (OD600 normalised to plate interquartile mean) (fraction); higher = less growth inhibition, active = 0.2 or less; conditions: 50 µM; LB; incubation time: overnight (16-24 h)
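Note: static incubation at 37 °C against the wild-type strain, values averaged over two biological replicates.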

Row | Structure (SMILES) | relative growth
1 | Cc1cc(C(=O)Nc2cccc3c2O[C@@H](CN(C)S(=O)(=O)c2ccc(Cl)cc2)[C@H](C)CN([C@@H](C)CO)C3=O)n(C)n1 | inactive: 0.998
2 | CC(C)NC(=O)N(C)C[C@@H]1Oc2ccc(NS(=O)(=O)c3ccccc3)cc2C(=O)N([C@@H](C)CO)C[C@H]1C | inactive: 0.984
3 | C[C@@H]1CN([C@@H](C)CO)C(=O)Cc2cc(NC(=O)CCN3CCOCC3)ccc2O[C@@H]1CN(C)C(=O)Nc1ccccc1 | inactive: 1.02
4 | C[C@H]1CN([C@@H](C)CO)S(=O)(=O)c2ccc(C#Cc3ccncc3)cc2O[C@H]1CN(C)S(=O)(=O)c1ccccc1 | inactive: 1.03
5 | Cc1noc(C)c1NC(=O)N(C)C[C@@H]1Oc2ccc(NC(=O)C3CC3)cc2CC(=O)N([C@@H](C)CO)C[C@@H]1C | inactive: 1
6 | CC1=CC=CC2=NC(=O)C[C@](C)(C(=O)O)N12 | inactive: 0.972
7 | COc1ccc(S(=O)(=O)N(C)C[C@@H]2Oc3c(NC(=O)Nc4cccc5ccccc45)cccc3C(=O)N([C@@H](C)CO)C[C@H]2C)cc1OC | inactive: 1.02
8 | CCC12CCCN3CCc4c(n(c5ccccc45)C(O)(C(=O)OC)C1)C32 (stereo not given) | inactive: 1.14
9 | COc1ccc(S(=O)(=O)Nc2ccc3c(c2)C(=O)N([C@@H](C)CO)C[C@H](C)[C@H](CN(C)S(=O)(=O)c2ccc(Cl)cc2)OCCCC[C@@H](C)O3)cc1 | inactive: 1.02
10 | C[C@@H]1CN([C@@H](C)CO)C(=O)Cc2cc(NC(=O)C3CC3)ccc2O[C@@H]1CN(C)S(=O)(=O)c1ccccc1 | inactive: 1.01
11 | COCC(=O)Nc1ccc2c(c1)C(=O)N(C)C[C@H](OC)[C@@H](C)CN(C(=O)Cc1ccccn1)[C@@H](C)CO2 | inactive: 0.971
12 | COc1ccc(S(=O)(=O)N(C)C[C@H]2Oc3c(NS(=O)(=O)c4ccc(C)cc4)cccc3C(=O)N([C@H](C)CO)C[C@H]2C)cc1 | inactive: 1.02
13 | COc1ccc(NC(=O)Nc2ccc3c(c2)C(=O)N([C@H](C)CO)C[C@@H](C)[C@H](CN(C)S(=O)(=O)c2ccccc2)OCCCC[C@H](C)O3)cc1 | inactive: 1.05
14 | Cc1ccc(S(=O)(=O)N(C)C[C@@H]2OCCCC[C@@H](C)Oc3ccc(NC(=O)C4CCCCC4)cc3C(=O)N([C@@H](C)CO)C[C@@H]2C)cc1 | inactive: 1.02
15 | O=C1CCC(C(=O)O)N1 (stereo not given) | inactive: 0.958
16 | C[C@H]1CN([C@@H](C)CO)C(=O)c2cc(NS(=O)(=O)c3ccc(F)cc3)ccc2O[C@@H]1CN(C)C(=O)Nc1ccc(C(F)(F)F)cc1 | inactive: 1.02
17 | C#CC1(O)CCC2C3CCc4cc(OC5CCCC5)ccc4C3CCC21C (stereo not given) | inactive: 1.02
18 | C[C@H]1CCCCO[C@H](CN(C)C(=O)Nc2ccc(F)cc2)[C@@H](C)CN([C@@H](C)CO)C(=O)c2cc(NC(=O)Nc3ccccc3)ccc2O1 | inactive: 1.03
19 | COC1C=COC2(C)Oc3c(C)c(O)c4c(O)c(c(C=NN5CCN(C)CC5)c(O)c4c3C2=O)NC(=O)C(C)=CC=CC(C)C(O)C(C)C(O)C(C)C(OC(C)=O)C1C (stereo not given) | active: 0.0777
20 | CCCNC(=O)N[C@@H]1C=C[C@@H](CC(=O)N2CCN(C)CC2)O[C@H]1CO | inactive: 1.01

Row | Structure (SMILES) | relative growth
21 | COc1ccc2c3c([nH]c2c1)[C@H](CO)N(Cc1ccc(cc1)Cl)C[C@]13CCN(CC1)Cc1nccs1 | inactive: 0.995
22 | CCOC(=O)[C@H]1CCCCN1 | inactive: 1
23 | C[C@@H]1CN([C@@H](C)CO)C(=O)c2cccc(NC(=O)c3ccncc3)c2O[C@H]1CN(C)S(=O)(=O)c1ccccc1 | inactive: 1
24 | CC(/C=C/C(=O)NO)=C\c1cccc(OC[C@@H]2[C@H]3C[C@H]4c5[nH]c6ccccc6c5CCN4C[C@@H]3CC[C@@H]2O)c1 | inactive: 0.96
25 | C[C@H](CO)N1C[C@H](C)[C@@H](CN(C)Cc2ccc(C(F)(F)F)cc2)Oc2ccc(NS(=O)(=O)c3ccc(Cl)cc3)cc2CC1=O | inactive: 1
26 | C[C@H](CO)N1C[C@H](C)[C@@H](CN(C)C(=O)C2CC2)OCc2cnnn2CCCC1=O | inactive: 0.989
27 | CC(C)NC(=O)Nc1ccc2c(c1)CC(=O)N([C@H](C)CO)C[C@H](C)[C@H](CN(C)C(=O)NC1CCCCC1)O2 | inactive: 1.02
28 | O=C([C@@H]1N[C@@H]2c3ccc(-c4ccc(F)cc4)c(=O)n3C[C@@H]2[C@H]1CO)N1CCOCC1 | inactive: 0.989
29 | C[C@H]1CN([C@@H](C)CO)C(=O)c2cc(NC(=O)CCCN(C)C)ccc2O[C@@H]1CN(C)Cc1ccc(Oc2ccccc2)cc1 | inactive: 0.982
30 | C[C@H]1CN([C@@H](C)CO)C(=O)c2cc(NS(=O)(=O)c3cn(C)cn3)ccc2O[C@H]1CN(C)S(=O)(=O)c1ccc(F)cc1 | inactive: 0.995
31 | C[C@H]1CN([C@@H](C)CO)C(=O)c2cccc(NC(=O)Nc3ccc(C(F)(F)F)cc3)c2O[C@H]1CN(C)S(=O)(=O)c1ccc(Cl)cc1 | inactive: 0.869
32 | O=C(C[C@@H]1CC[C@@H]2[C@H](COC[C@@H](O)CN2C(=O)Nc2ccc(C(F)(F)F)cc2)O1)NCc1ccncn1 | inactive: 1.02
33 | C[C@H]1CN([C@@H](C)CO)C(=O)c2cccc(NC(=O)Nc3cccc4ccccc34)c2O[C@H]1CN(C)C(=O)Nc1ccc(C(F)(F)F)cc1 | inactive: 0.978
34 | COC(=O)c1cnn2c(=O)cc(C)[nH]c12 | inactive: 1.01
35 | C[C@@H]1CN([C@H](C)CO)S(=O)(=O)c2ccc(-c3ccc(C(=O)N(C)C)cc3)cc2O[C@@H]1CN(C)C(=O)C1CCC1 | inactive: 1.01
36 | COc1ccc(S(=O)(=O)N2C[C@H](O)COC[C@@H]3O[C@@H](CC(=O)NCCCN(C)C)CC[C@H]32)cc1 | inactive: 0.995
37 | CC(=O)N1CCS(=O)(=O)[C@@H]2CCN(S(=O)(=O)c3ccccc3C)CC[C@@H]21 | inactive: 0.987
38 | COC(=O)[C@@H]1C[C@@H](C#N)N[C@@H]1c1ccccn1 | inactive: 1.02
39 | C[C@H](CO)N1C[C@H](C)[C@H](CN(C)Cc2ccc(C(=O)O)cc2)OCCCC[C@H](C)Oc2ccc(NC(=O)Nc3ccc4c(c3)OCO4)cc2C1=O | inactive: 1.02
40 | C[C@@H]1CCCCO[C@@H](CN(C)S(=O)(=O)c2ccc(Cl)cc2)[C@H](C)CN([C@H](C)CO)C(=O)c2cc(NC(=O)NC3CCCCC3)ccc2O1 | inactive: 1.01

Row | Structure (SMILES) | relative growth
41 | COc1ccc(CN(C)C[C@H]2Oc3ccc(NS(=O)(=O)c4cn(C)cn4)cc3CC(=O)N([C@H](C)CO)C[C@H]2C)cc1 | inactive: 0.983
42 | C[C@H](CO)N1C[C@H](C)[C@H](CN(C)C(=O)NC2CCCCC2)Oc2ccc(NS(=O)(=O)c3cn(C)cn3)cc2C1=O | inactive: 0.975
43 | C[C@H](CO)N1C[C@H](C)[C@@H](CN(C)S(=O)(=O)c2ccccc2)Oc2ccc(NC(=O)C3CC3)cc2C1=O | inactive: 1
44 | C[C@@H]1CCCCO[C@@H](CN(C)Cc2ccc(C(F)(F)F)cc2)[C@H](C)CN([C@@H](C)CO)C(=O)c2cc(NC(=O)Nc3ccccc3)ccc2O1 | inactive: 0.971
45 | Cc1cc(C(=O)O)n(C)n1 | inactive: 0.984
46 | Cc1ccc(S(=O)(=O)N(C)C[C@@H]2OCCCC[C@H](C)Oc3ccc(NC(=O)Nc4c(C)noc4C)cc3C(=O)N([C@@H](C)CO)C[C@@H]2C)cc1 | inactive: 0.988
47 | C[C@@H]1CN([C@@H](C)CO)C(=O)c2cc(NS(=O)(=O)c3ccc(F)cc3)ccc2O[C@@H](C)CCCCO[C@@H]1CN(C)C(=O)Nc1ccccc1 | inactive: 1.03
48 | COc1c2ccoc2cc2oc(=O)ccc12 | inactive: 1.11
49 | CN(C)CC(=O)N1CC(=O)N2[C@H](CO)[C@@H](c3ccc(C#Cc4cccnc4)cc3)[C@@H]2C1 | inactive: 1
50 | C[C@H](CO)N1C[C@H](C)[C@H](CN(C)S(=O)(=O)c2ccccc2)OCCCC[C@H](C)Oc2ccc(NC(=O)Nc3ccc(C(F)(F)F)cc3)cc2C1=O | inactive: 1
51 | CC(C)NC(=O)N(C)C[C@@H]1Oc2cc(C#Cc3cccc(F)c3)ccc2S(=O)(=O)N([C@@H](C)CO)C[C@@H]1C | inactive: 0.992
52 | C[C@@H]1CN([C@@H](C)CO)C(=O)c2cc(NC(=O)Nc3cccc4ccccc34)ccc2O[C@@H](C)CCCCO[C@@H]1CN(C)S(=O)(=O)c1ccc(Cl)cc1 | inactive: 1
53 | Cc1cc(=O)n(CNC(=O)c2ccco2)cn1 | inactive: 1.01
54 | CN(C)CC(=O)N1[C@@H]2Cn3c(cccc3=O)[C@H]1[C@@H](C(=O)NCc1ccccc1)[C@@H]2CO | inactive: 1
55 | C[C@@H]1CN([C@@H](C)CO)C(=O)c2cc(NC(=O)Nc3cccc4ccccc34)ccc2O[C@H]1CN(C)C(=O)Nc1cccc2ccccc12 | inactive: 1.03
56 | Cc1noc(C)c1S(=O)(=O)Nc1ccc2c(c1)C(=O)N([C@H](C)CO)C[C@@H](C)[C@H](CN(C)Cc1ccc(C(F)(F)F)cc1)OCCCC[C@H](C)O2 | inactive: 1.02
57 | C[C@@H]1CCCCO[C@H](CN(C)S(=O)(=O)c2cccs2)[C@@H](C)CN([C@H](C)CO)C(=O)c2cc(NC(=O)Nc3ccc4c(c3)OCO4)ccc2O1 | inactive: 1.02
58 | CC(C)NC(=O)Nc1ccc2c(c1)CC(=O)N([C@H](C)CO)C[C@@H](C)[C@H](CN(C)S(=O)(=O)c1ccc(Cl)cc1)O2 | inactive: 1.01
59 | C[C@@H]1CCCCO[C@@H](CN(C)C(=O)c2ccccc2)[C@H](C)CN([C@@H](C)CO)C(=O)c2cc(NC(=O)Nc3cccc4ccccc34)ccc2O1 | inactive: 1.01
60 | O=C(/C=C/c1ccc2c(c1)O[C@@H](C(=O)O)[C@@H](c1ccc(O)c(O)c1)O2)O[C@H](Cc1ccc(O)c(O)c1)C(=O)O | inactive: 0.978
